This is one part of the list.

First the molecules themselves.
B1: chr1:20742972:20743075:-|3pUTR|ENSG00000127483|unk|FALSE|unique (ssRNA)
RNA: GGGAGUUCUACAGUCCGACGAUCUAACCCUUUCUUAUUUGUAUUUGUUUUAGUAUUGUGAAGUUGUGUUAAAUAGUACUAGCUAGAAAUACAAAUUUCUGGUUAUCAUUUCUCUUCCCUGUGGCACUUGACAUUUUAAUUGUCCAACAGAGGAUUGAGCAUCA
B2: chr14:73275881:73276001:-|3pUTR|ENSG00000133961|unk|total|mutant (ssRNA)
RNA: GGGAGUUCUACAGUCCGACGAUCAAAUAUUAUAUAUAUCAAAAGCCAAAAUCUUUAUUUUUAUGCAUUCCGAAUAUUUUAAACCGUUCUCAGAUAUUAAGAAGUUGUAUGAGUUGUAAGUAAUCUUGCCAAAGGUAAAGGGGCCAACAGAGGAUUGAGCAUCA
B3: chr21:25606471:25606579:-|CDS|ENSG00000154719|unk|total|mutant (ssRNA)
RNA: GGGAGUUCUACAGUCCGACGAUCUGAUCUCUUUAAUAAAGAGAAAGCCAGGCAGUUAUCAUUAACUCCCCGAACUGAGAAGACCGAAGUUAAGCAUGUUGGGAAAACUGACCCCGGUACUGUCUUCGUGAUGAAUAAAAACAUCAACAGAGGAUUGAGCAUCA
B4: ENSG00000120616:stop:overlap|stop_codon|ENSG00000120616|stop_codon|NA|stop_codon (ssRNA)
RNA: GGGAGUUCUACAGUCCGACGAUCAAUCAGAAAAGCCAGCACUGAACAACAUAGCAGACAACACAGUAGCGAUGGAGGUGACGUAGCUUCCUCCGAGUGGAACUGCAGCCUGGGGACUUGAUUAGGUGCUAUGCAUCAGUAGCACAACAGAGGAUUGAGCAUCA
B5: chr3:179570125:179570235:+|CDS|ENSG00000136518|unk|FALSE|unique (ssRNA)
RNA: GGGAGUUCUACAGUCCGACGAUCAAGCACAUUAAUGGAAAUAGAUGGCGAUAAAGGCAAACAAGGCGGUCCCACCUACUACAUAGAUACUAAUGCUCUGCGUGUUCCGAGGGAGAAUAUGGAGGCCAUUUCACCUCUAAAAAACAACAGAGGAUUGAGCAUCA
B6: chr6:134169319:134169461:-|3pUTR|ENSG00000118515|unk|total|mutant (ssRNA)
RNA: GGGAGUUCUACAGUCCGACGAUCUGCAUUCCUGAUAAUUGUAUGUAUUGUAUAAAGAACGUCUGUACAUUGGGUUAUAACACCCGUAUAUUUAAACUUACAGGCUUAUUUGUAAUGUAAACCACCAUUUUAAUGUACUGUAAUCAACAGAGGAUUGAGCAUCA

The target of the test is MSI1 full-length (mouse, UniProt Q61474 1-362). Briefly: nsRBNS (natural sequence RNA bind-n-seq); RBNS binding buffer (assumed for nsRBNS): 25 mM Tris pH 7.5, 150 mM KCl, 3 mM MgCl2, 0.01% Triton X-100, 500 ug/ml BSA, 20 U/ml SUPERase-In, 4 C; UNK is unkempt and MSI1 is Musashi-1; names of the RNAs are library labels; protein concentration not given here; high values mean tight binding.
Sequence of UniProt Q61474 (Q61474 whole entry): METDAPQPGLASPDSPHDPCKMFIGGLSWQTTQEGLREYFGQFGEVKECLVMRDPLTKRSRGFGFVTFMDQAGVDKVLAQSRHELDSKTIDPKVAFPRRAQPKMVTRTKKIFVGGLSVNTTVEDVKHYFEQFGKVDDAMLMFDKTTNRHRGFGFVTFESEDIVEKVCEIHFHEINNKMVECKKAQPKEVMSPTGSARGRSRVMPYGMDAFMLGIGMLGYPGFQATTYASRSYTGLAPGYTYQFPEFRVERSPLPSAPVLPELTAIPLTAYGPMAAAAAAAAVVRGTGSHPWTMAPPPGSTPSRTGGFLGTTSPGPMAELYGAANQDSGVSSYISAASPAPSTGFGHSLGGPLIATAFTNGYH
In turn, B1 registered a binding signal of 3.75 enrichment R.

With B2, the binding signal is 2.38 enrichment R.

In turn, B3 yielded a binding signal of 0.257 enrichment R.

The molecule B4 returned a binding signal of 0.702 enrichment R.

Molecule B5 returned a binding signal of 0.774 enrichment R.

In turn, B6 returned a binding signal of 1.11 enrichment R.

Values taken from paper PMC12136788.
